Our source for the binding signal values is PMC9911399, “Two distinct binding modes provide the RNA-binding protein RbFox with extraordinary sequence specificity”.

T1: RBFOX1 RRM RbFoxmut (Fox-RRM*) (Homo sapiens, UniProt Q9NWB1 109-208, R118D;E147R;N151S;E152T)
T1 sequence: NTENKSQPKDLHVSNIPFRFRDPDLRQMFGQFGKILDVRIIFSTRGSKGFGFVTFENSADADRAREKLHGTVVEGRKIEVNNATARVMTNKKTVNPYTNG

B1: GACAACA (DNA:RNA)
RNA: GGGAGACCGGAAUUCAGAUUGUCCGACAACAUUAAAUCCCGUCGUAGCCACCA
DNA 1: CAATCTGAATTCCGGTCTCCC
DNA 2: TGGTGGCTACGACGGGATT
B2: UUCUGUC (DNA:RNA)
RNA: B1 RNA with G25U, A26U, A28U, A29G, C30U, A31C
DNA 1: CAATCTGAATTCCGGTCTCCC
DNA 2: TGGTGGCTACGACGGGATT
B3: UUCCCUC (DNA:RNA)
RNA: B1 RNA with G25U, A26U, A28C, A29C, C30U, A31C
DNA 1: CAATCTGAATTCCGGTCTCCC
DNA 2: TGGTGGCTACGACGGGATT
B4: CGUCGCU (DNA:RNA)
RNA: B1 RNA with G25C, A26G, C27U, A28C, A29G, A31U
DNA 1: CAATCTGAATTCCGGTCTCCC
DNA 2: TGGTGGCTACGACGGGATT
B5: AGUUACA (DNA:RNA)
RNA: B1 RNA with G25A, A26G, C27U, A28U
DNA 1: CAATCTGAATTCCGGTCTCCC
DNA 2: TGGTGGCTACGACGGGATT
B6: GAAGCUU (DNA:RNA)
RNA: B1 RNA with C27A, A28G, A29C, C30U, A31U
DNA 1: CAATCTGAATTCCGGTCTCCC
DNA 2: TGGTGGCTACGACGGGATT
B7: GCCACGU (DNA:RNA)
RNA: B1 RNA with A26C, A29C, C30G, A31U
DNA 1: CAATCTGAATTCCGGTCTCCC
DNA 2: TGGTGGCTACGACGGGATT
B8: AAUCAUA (DNA:RNA)
RNA: B1 RNA with G25A, C27U, A28C, C30U
DNA 1: CAATCTGAATTCCGGTCTCCC
DNA 2: TGGTGGCTACGACGGGATT
B9: ACUAACC (DNA:RNA)
RNA: B1 RNA with G25A, A26C, C27U, A31C
DNA 1: CAATCTGAATTCCGGTCTCCC
DNA 2: TGGTGGCTACGACGGGATT
B10: UAUUUUA (DNA:RNA)
RNA: B1 RNA with G25U, C27U, A28U, A29U, C30U
DNA 1: CAATCTGAATTCCGGTCTCCC
DNA 2: TGGTGGCTACGACGGGATT
B11: GAGACGG (DNA:RNA)
RNA: B1 RNA with C27G, A29C, C30G, A31G
DNA 1: CAATCTGAATTCCGGTCTCCC
DNA 2: TGGTGGCTACGACGGGATT
B12: GCCGCGU (DNA:RNA)
RNA: B1 RNA with A26C, A28G, A29C, C30G, A31U
DNA 1: CAATCTGAATTCCGGTCTCCC
DNA 2: TGGTGGCTACGACGGGATT
B13: CAAUGAU (DNA:RNA)
RNA: B1 RNA with G25C, C27A, A28U, A29G, C30A, A31U
DNA 1: CAATCTGAATTCCGGTCTCCC
DNA 2: TGGTGGCTACGACGGGATT
B14: UUCCGAU (DNA:RNA)
RNA: B1 RNA with G25U, A26U, A28C, A29G, C30A, A31U
DNA 1: CAATCTGAATTCCGGTCTCCC
DNA 2: TGGTGGCTACGACGGGATT
B15: GUUGAUU (DNA:RNA)
RNA: B1 RNA with A26U, C27U, A28G, C30U, A31U
DNA 1: CAATCTGAATTCCGGTCTCCC
DNA 2: TGGTGGCTACGACGGGATT
B16: AUGGGAU (DNA:RNA)
RNA: GGGAGACCGGAAUUCAGAUUGUCCAUGGGAUUUAAAUCCCGUCGUAGCCACCA
DNA 1: CAATCTGAATTCCGGTCTCCC
DNA 2: TGGTGGCTACGACGGGATT
B17: UGCAUCG (DNA:RNA)
RNA: B1 RNA with G25U, A26G, A29U, A31G
DNA 1: CAATCTGAATTCCGGTCTCCC
DNA 2: TGGTGGCTACGACGGGATT
B18: UGCCGAG (DNA:RNA)
RNA: B16 RNA with A25U, U26G, G27C, G28C, U31G
DNA 1: CAATCTGAATTCCGGTCTCCC
DNA 2: TGGTGGCTACGACGGGATT
B19: AGAGAGU (DNA:RNA)
RNA: B16 RNA with U26G, G27A, G29A, A30G
DNA 1: CAATCTGAATTCCGGTCTCCC
DNA 2: TGGTGGCTACGACGGGATT
B20: AUUCGGC (DNA:RNA)
RNA: B16 RNA with G27U, G28C, A30G, U31C
DNA 1: CAATCTGAATTCCGGTCTCCC
DNA 2: TGGTGGCTACGACGGGATT
B21: ACGCUCA (DNA:RNA)
RNA: B16 RNA with U26C, G28C, G29U, A30C, U31A
DNA 1: CAATCTGAATTCCGGTCTCCC
DNA 2: TGGTGGCTACGACGGGATT
B22: UCCCGCC (DNA:RNA)
RNA: B1 RNA with G25U, A26C, A28C, A29G, A31C
DNA 1: CAATCTGAATTCCGGTCTCCC
DNA 2: TGGTGGCTACGACGGGATT
B23: AAUCAGU (DNA:RNA)
RNA: B16 RNA with U26A, G27U, G28C, G29A, A30G
DNA 1: CAATCTGAATTCCGGTCTCCC
DNA 2: TGGTGGCTACGACGGGATT
B24: GCUGUGU (DNA:RNA)
RNA: B16 RNA with A25G, U26C, G27U, G29U, A30G
DNA 1: CAATCTGAATTCCGGTCTCCC
DNA 2: TGGTGGCTACGACGGGATT
B25: CUCUAUC (DNA:RNA)
RNA: B1 RNA with G25C, A26U, A28U, C30U, A31C
DNA 1: CAATCTGAATTCCGGTCTCCC
DNA 2: TGGTGGCTACGACGGGATT
B26: UGUACCA (DNA:RNA)
RNA: B1 RNA with G25U, A26G, C27U, A29C
DNA 1: CAATCTGAATTCCGGTCTCCC
DNA 2: TGGTGGCTACGACGGGATT
B27: GGUUCCA (DNA:RNA)
RNA: B1 RNA with A26G, C27U, A28U, A29C
DNA 1: CAATCTGAATTCCGGTCTCCC
DNA 2: TGGTGGCTACGACGGGATT
B28: CCUGCGC (DNA:RNA)
RNA: B16 RNA with A25C, U26C, G27U, G29C, A30G, U31C
DNA 1: CAATCTGAATTCCGGTCTCCC
DNA 2: TGGTGGCTACGACGGGATT
B29: GAAUAUU (DNA:RNA)
RNA: B1 RNA with C27A, A28U, C30U, A31U
DNA 1: CAATCTGAATTCCGGTCTCCC
DNA 2: TGGTGGCTACGACGGGATT
B30: GUUAAGG (DNA:RNA)
RNA: B1 RNA with A26U, C27U, C30G, A31G
DNA 1: CAATCTGAATTCCGGTCTCCC
DNA 2: TGGTGGCTACGACGGGATT
B31: AGGUGUA (DNA:RNA)
RNA: B16 RNA with U26G, G28U, A30U, U31A
DNA 1: CAATCTGAATTCCGGTCTCCC
DNA 2: TGGTGGCTACGACGGGATT

Positions count from the first letter of the chain named. The list shows a part of the results.

The target of the experiment is T1, RBFOX1 RRM RbFoxmut (Fox-RRM*). The experiment in a line: EMSA; HiTS-Eq, 1 nM pool, 10 min; buffer printed only for the single-RNA assays: 10 mM Tris pH 7.5, 150 mM NaCl, 3.4 mM EDTA, 0.001% NP-40, 30 C. To be noted: tags: His6 N-terminal (pET28a); label: 5' 32P. Put shortly: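 Purified RbFox RRM (wild type or mutant) was equilibrated for 10 min in 50 µL with 1 nM of a 5′-radiolabelled pool of RNA with 7 randomized nucleotides, its flanks annealed to DNA oligonucleotides, across increasing protein concentrations. Free RNA was separated by 8% native PAGE, excised, reverse-transcribed, PCR-barcoded and sequenced on an Illumina HiSeq 2500. Relative association constants came from read-count changes of each variant against the control reaction, normalised to the cognate motif.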
On the technique in general: In EMSA bound probe runs differently from free probe, usually more slowly.
As for B1, the binding signal was 0.0695 KA relative to UGCAUGU.
The figure for B2 is 0.197 KA relative to UGCAUGU; for B3 it is 0.0688 KA relative to UGCAUGU.
The same measure for B4: 0.11 KA relative to UGCAUGU; for B5: 0.095 KA relative to UGCAUGU; for B6: 0.0705 KA relative to UGCAUGU.
Take B7: the binding signal was 0.0977 KA relative to UGCAUGU.
As for B8, the binding signal was 0.0759 KA relative to UGCAUGU.
B9: the binding signal was 0.0911 KA relative to UGCAUGU.
The figure for B10 is 0.132 KA relative to UGCAUGU.
The figure for B11 is 0.0522 KA relative to UGCAUGU; for B12 it is 0.13 KA relative to UGCAUGU; for B13 it is 0.085 KA relative to UGCAUGU.
The figure for B14 is 0.0783 KA relative to UGCAUGU; for B15 it is 0.124 KA relative to UGCAUGU.
For B16, the binding signal is 0.111 KA relative to UGCAUGU.
Regarding B17, the binding signal was 0.922 KA relative to UGCAUGU.
The figure for B18 is 0.119 KA relative to UGCAUGU; for B19 it is 0.114 KA relative to UGCAUGU.
The same measure for B20: 0.0996 KA relative to UGCAUGU; for B21: 0.0846 KA relative to UGCAUGU; for B22: 0.142 KA relative to UGCAUGU.
The figure for B23 is 0.0868 KA relative to UGCAUGU.
Consider B24, for which the binding signal is 0.166 KA relative to UGCAUGU.
On to B25, for which the binding signal was 0.0763 KA relative to UGCAUGU.
The same measure for B26: 0.0987 KA relative to UGCAUGU; for B27: 0.0899 KA relative to UGCAUGU; for B28: 0.0946 KA relative to UGCAUGU.
The figure for B29 is 0.153 KA relative to UGCAUGU; for B30 it is 0.0786 KA relative to UGCAUGU; for B31 it is 0.193 KA relative to UGCAUGU.
